From the antibiotic and cytotoxicity screens of Wong et al. (2023)
This is one part of the list.

Tests used:
[1] = tested on: HSkMC (human skeletal muscle cells); assay: cytotoxicity call (relative viability < 0.9); settings: 10 µM
[2] = tested on: HepG2; assay: cytotoxicity call (relative viability < 0.9); settings: 10 µM
[3] = tested on: S. aureus RN4220; assay: growth inhibition call (relative growth <= 0.2); settings: 50 µM

Row | SMILES | cytotoxicity call [1] | cytotoxicity call [2] | growth inhibition call [3]
1 | C[C@@H]1CN([C@@H](C)CO)C(=O)c2cc(NC(=O)Cn3cnnn3)ccc2O[C@H]1CN(C)CC1CCCCC1 | inactive | inactive | inactive
2 | C[C@@H]1CCCCO[C@@H](CN(C)C(=O)c2ccncc2)[C@H](C)CN([C@@H](C)CO)C(=O)c2cc(NC(=O)C3CCCCC3)ccc2O1 | inactive | inactive | inactive
3 | C[C@@H]1CN([C@H](C)CO)C(=O)c2cc(-c3cccc(C(=O)N(C)C)c3)cnc2O[C@H]1CN(C)S(=O)(=O)c1ccccc1 | inactive | inactive | inactive
4 | CCCCCCCCCCCCN1CCCCCC1=O | inactive | inactive | inactive
5 | C[C@@H]1CN([C@@H](C)CO)C(=O)c2cccc(NS(=O)(=O)c3cn(C)cn3)c2O[C@@H]1CN(C)S(=O)(=O)c1ccc(Cl)cc1 | inactive | inactive | inactive
6 | Cc1cc(C)c(S(=O)(=O)NCCO)cc1C | inactive | inactive | inactive
7 | C[C@H](CO)N1C[C@H](C)[C@H](CN(C)S(C)(=O)=O)OCCCC[C@H](C)Oc2ccc(NC(=O)c3ccncc3)cc2C1=O | inactive | inactive | inactive
8 | [N-]=[N+]=NCc1ccccc1C[C@]1(C(=O)NCc2ccccc2)N=C(c2ccc(OCCCO)cc2)O[C@H]1c1ccccc1 | inactive | active | inactive
9 | C[C@@H]1CCCCO[C@@H](CN(C)Cc2ccc(Cl)c(Cl)c2)[C@H](C)CN([C@@H](C)CO)C(=O)c2cc(NS(C)(=O)=O)ccc2O1 | inactive | inactive | inactive
10 | CC1(C)CCCC2(C)C1CCC1(C)OCCC12 (stereo not drawn) | inactive | inactive | inactive
11 | C[C@@H]1CCCCO[C@H](CN(C)CC2CCCCC2)[C@H](C)CN([C@@H](C)CO)C(=O)c2cc(NC(=O)Nc3ccccc3)ccc2O1 | inactive | active | inactive
12 | COc1ccc(NC(=O)Nc2ccc3c(c2)C(=O)N([C@H](C)CO)C[C@@H](C)[C@H](CN(C)S(=O)(=O)c2c(C)noc2C)OCCCC[C@@H](C)O3)cc1 | inactive | inactive | inactive
13 | CCC(=O)N[C@H]1CC[C@H](CC(=O)OC)O[C@@H]1CO | inactive | inactive | inactive
14 | Cn1cnc(S(=O)(=O)N2C[C@H](O)COC[C@@H]3O[C@@H](CC(=O)NCc4ccc(F)cc4)CC[C@H]32)c1 | inactive | inactive | inactive
15 | C[C@@H]1CN([C@H](C)CO)C(=O)c2cccc(NS(=O)(=O)c3ccc(F)cc3)c2O[C@@H]1CN(C)S(=O)(=O)c1ccccc1 | inactive | inactive | inactive
16 | CCNC(=O)C[C@@H]1CC[C@H]2[C@@H](COC[C@H](O)CN2C(=O)Nc2c(C)noc2C)O1 | inactive | inactive | inactive
17 | C[C@H]1CN([C@@H](C)CO)C(=O)c2cccc(NC(=O)Nc3ccc(C(F)(F)F)cc3)c2O[C@@H]1CN(C)C(=O)Nc1ccc(C(F)(F)F)cc1 | active | active | inactive
18 | CC1(C)[C@H]2CC[C@@]1(CS(N)(=O)=O)C(=O)C2 | inactive | inactive | inactive
19 | Cl.Nc1c2c(nc3ccccc13)CCCC2 | inactive | active | inactive
20 | CO[C@H]1CN(C)C(=O)c2cc(NC(=O)C3CC3)ccc2OC[C@@H](C)N(C(=O)C2CCOCC2)C[C@@H]1C | inactive | inactive | inactive
21 | C[C@H]1CN([C@@H](C)CO)C(=O)c2cc(C#CC3CCCC3)cnc2O[C@@H]1CN(C)C(=O)Cc1ccccn1 | inactive | inactive | inactive

Row | SMILES | cytotoxicity call [1] | cytotoxicity call [2] | growth inhibition call [3]
22 | COCC#Cc1ccc([C@H]2[C@H]3CN(C(=O)C4CCOCC4)CC(=O)N3[C@H]2CO)cc1 | inactive | inactive | inactive
23 | C[C@@H]1CN([C@H](C)CO)S(=O)(=O)c2ccc(C#C[C@@H](C)O)cc2O[C@H]1CN(C)C(=O)c1ccncc1 | inactive | inactive | inactive
24 | O=C(C[C@H]1CC[C@@H]2[C@H](COC[C@H](O)CN2C(=O)Nc2ccc(C(F)(F)F)cc2)O1)NCCc1ccncc1 | inactive | inactive | active
25 | COc1ccc(S(=O)(=O)Nc2ccc3c(c2)C(=O)N([C@@H](C)CO)C[C@H](C)[C@H](CN(C)Cc2ccc(C(=O)O)cc2)OCCCC[C@@H](C)O3)cc1 | inactive | inactive | inactive
26 | CN(C)CC(=O)N[C@@H]1CC[C@@H](CC(=O)NCCN2CCCCC2)O[C@H]1CO | inactive | inactive | inactive
27 | O=c1c(O)c(-c2ccccc2)oc2cc(O)cc(O)c12 | inactive | inactive | inactive
28 | C[C@H]1CN([C@@H](C)CO)C(=O)c2cccc(NS(=O)(=O)c3ccc(Cl)cc3)c2O[C@@H]1CN(C)C(=O)Nc1cccc2ccccc12 | inactive | inactive | inactive
29 | C[C@H](CO)N1C[C@H](C)[C@H](CN(C)CC2CCCCC2)Oc2ccc(NC(=O)CCCCCC(=O)Nc3ccccc3N)cc2C1=O | inactive | active | inactive
30 | CCCC(NC(C)C(=O)N1C(C(=O)O)CC2CCCCC21)C(=O)O (stereo not drawn) | inactive | inactive | inactive
31 | NCCCc1ccc2c(c1)OCO2 | inactive | inactive | inactive
32 | COc1ccc(S(=O)(=O)N(C)C[C@@H]2OCCCC[C@@H](C)Oc3ccc(NC(=O)CCC(F)(F)F)cc3C(=O)N([C@H](C)CO)C[C@@H]2C)cc1 | inactive | inactive | inactive
33 | C[C@@H]1CN([C@@H](C)CO)C(=O)Cc2cc(NC(=O)Nc3cccc4ccccc34)ccc2O[C@H]1CN(C)Cc1ccccc1 | inactive | inactive | inactive
34 | CCS(=O)(=O)N1C[C@]2(CN(C2)C(=O)c2ccc3c(c2)OCO3)c2c(n(c3cc(ccc23)OC)C)[C@H]1CO | inactive | inactive | inactive
35 | NCC[C@@H]1CC[C@@H](NC(=O)NC2CCCCC2)[C@@H](CO)O1 | inactive | inactive | inactive
36 | NCCc1nc(-c2ccccc2)cs1 | inactive | inactive | inactive
37 | Cc1ccc(S(=O)(=O)N(C)C[C@@H]2Oc3ccc(NS(C)(=O)=O)cc3C(=O)N([C@@H](C)CO)C[C@H]2C)cc1 | inactive | inactive | inactive
38 | C[C@@H]1CN([C@@H](C)CO)C(=O)c2cc(C#CCN(C)C)cnc2O[C@@H]1CN(C)S(=O)(=O)c1ccccc1 | inactive | inactive | inactive
39 | C[C@@H]1CN([C@@H](C)CO)C(=O)Cc2cc(NS(C)(=O)=O)ccc2O[C@@H]1CN(C)Cc1ccc2c(c1)OCO2 | inactive | inactive | inactive
40 | C[C@H](CO)N1C[C@H](C)[C@H](CN(C)C(=O)Nc2ccccc2C(F)(F)F)OCc2ccccc2-c2c(n(C)c3ccccc23)C1=O | inactive | inactive | inactive
41 | CCOc1ccc([C@@H](C)N)cc1OCC | inactive | inactive | inactive
42 | COCCNC(=O)C[C@@H]1CC[C@H]2[C@@H](COC[C@H](O)CN2S(=O)(=O)c2ccccc2F)O1 | inactive | inactive | inactive

Row | SMILES | cytotoxicity call [1] | cytotoxicity call [2] | growth inhibition call [3]
43 | C[C@H](CO)N1C[C@H](C)[C@@H](CN(C)C(=O)C2CCOCC2)Oc2ncc(C#CC3(O)CCCC3)cc2C1=O | inactive | inactive | inactive
44 | COc1ccc(S(=O)(=O)Nc2cccc3c2O[C@@H](CN(C)Cc2ccncc2)[C@H](C)CN([C@@H](C)CO)C3=O)cc1 | inactive | inactive | inactive
45 | COc1ccc(NC(=O)N(C)C[C@H]2Oc3ccc(NC(=O)Cn4cnnn4)cc3CC(=O)N([C@H](C)CO)C[C@@H]2C)cc1 | inactive | inactive | inactive
46 | Cc1noc(C)c1S(=O)(=O)N(C)C[C@@H]1Oc2ccc(NC(=O)Nc3ccccc3)cc2C(=O)N([C@@H](C)CO)C[C@@H]1C | inactive | inactive | inactive
47 | O=C1O[C@@H](c2ccccc2)[C@@H](c2ccccc2)N2[C@@H](c3ccccc3OCCO)[C@]3(C(=O)Nc4ccc(C#CC5(O)CCCCCC5)cc43)[C@@H](C(=O)O)[C@H]12 | inactive | inactive | inactive
48 | C=CCC[C@@H](Cc1ccc(F)cc1)C(=O)OC[C@@H](Cc1c[nH]c2ccccc12)NC(=O)[C@H](CC=C)CC(=O)N(CCO)Cc1ccccc1 | active | active | inactive
49 | Cc1ccccc1S(=O)(=O)N1C[C@H](O)COC[C@@H]2O[C@H](CC(=O)N3CCN(C)CC3)CC[C@H]21 | inactive | inactive | inactive
50 | Cc1noc(C)c1NC(=O)Nc1ccc2c(c1)C(=O)N([C@H](C)CO)C[C@@H](C)[C@@H](CN(C)Cc1ccc(C(F)(F)F)cc1)OCCCC[C@H](C)O2 | inactive | inactive | inactive
51 | COc1ccc(C(C)C(=O)c2ccc(O)cc2O)cc1 (stereo not drawn) | inactive | inactive | active
52 | COc1cc(OC)cc(-c2ccc([C@H]3CC(=O)C[C@@H](c4ccccc4)C34C(=O)OC(C)(C)OC4=O)cc2)c1 | inactive | inactive | inactive
53 | COCCNC(=O)C[C@@H]1CC[C@@H]2[C@H](COC[C@H](O)CN2S(=O)(=O)c2ccccc2C)O1 | inactive | inactive | inactive
54 | CCCCc1ccc(CC(=O)O)cc1 | inactive | active | inactive
55 | CC(=O)Oc1cc(C(C)C)c(OCCN(C)C)cc1C.Cl | inactive | inactive | inactive
56 | CCc1nc2ccc(C(=O)Nc3ccc(OC)c(OC)c3)cn2c1N(CC)Cc1ccc(OC)c(OC)c1 | inactive | inactive | inactive
57 | COc1ccc2c3c([nH]c2c1)[C@@H](CO)N(C[C@]13CCN(CC1)CC1CCCC1)C(=O)CN1CCOCC1 | inactive | inactive | inactive
58 | C[C@H](CO)N1C[C@H](C)[C@H](CN(C)Cc2cccc3c2OCCCO3)OCc2ccccc2-c2c(n(C)c3ccccc23)C1=O | inactive | inactive | inactive
59 | CC1(C)[C@@H](OC(=O)CCC(=O)O)CC[C@]2(C)[C@H]3C(=O)C=C4[C@@H]5C[C@@](C)(C(=O)O)CC[C@]5(C)CC[C@@]4(C)[C@]3(C)CC[C@@H]12 | inactive | inactive | inactive
60 | C[C@@H]1CN([C@@H](C)CO)S(=O)(=O)c2ccc(C#Cc3ccc(F)cc3)cc2O[C@H]1CN(C)C(=O)c1ccccn1 | inactive | inactive | inactive
61 | COc1nc(N)nc2c1ncn2[C@@H]1O[C@H](CO[P@@](=O)(N[C@@H](C)C(=O)OCC(C)(C)C)Oc2cccc3ccccc23)[C@@H](O)[C@@]1(C)O | inactive | active | inactive
